TGI and GI50 data for 65 molecules are collected here from PubChem BioAssay (NCI).

Several values for one entry are separate records, joined by “and”; a condition that tells them apart may be missing. Equal entries are not always repeated.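 Values below derive from 48-hour exposures of cells grown in 96-well plates, with endpoints linearly interpolated between the two concentrations bracketing the appropriate inhibition level. GI50 marks 50% less growth. At the TGI there is no net growth.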

The assay deals with NCI-H322M lung. The assay can be described thus: NCI-60 cell line screen, 48 h.

In turn, `CC1(C)CC(=O)C(C(=O)C(=O)NC2=C(Cl)C(=O)c3ccccc3C2=O)C(=O)C1` had a TGI of over 100 µM.
The molecule `COc1c(-c2nc3nc(N4CCN(C)CC4)ccc3[nH]2)cc(OC)c2c1nc(CO)n2C` registered a TGI of over 100 µM.
The same measure, in the same setting: as for `COC(=O)C(Cc1nc2ccc(Cl)cc2[nH]c1=O)/C(=N/O)C(=O)Nc1cccc(Cl)c1C` (centres undefined), the figure is over 100 µM; as for `O=C(O)C1(C(=O)O)CC1`, over 100 µM; as for `Cc1ccc2c(=O)cc(-c3cccc(Cl)c3)[nH]c2n1`, over 100 µM.
For `CN1CCN(Cc2ccc(NC(=O)c3nc4ccc5[nH]ncc5c4c4c3CCCC4)cc2C(F)(F)F)CC1`, the GI50 is 0.793 µM and the TGI was 1.48 µM.
The molecule `COc1cc([C@@H]2c3cc4c(cc3[C@@H](NC(=O)c3cccc(N)c3)C3COC(=O)[C@@H]32)OCO4)cc(OC)c1O` (some centres undefined) gave a TGI of over 100 µM.
Turning to `CCN(CCCNC(=O)Cc1cc(=O)oc2cc(N(C)C)ccc12)CCNc1ccnc2cc(Cl)ccc12`, the GI50 is 18.8 µM and the TGI worked out at 68.7 µM.
Regarding `Clc1ccc(C(c2ccc(Cl)cc2)c2cncnc2)cc1`, the TGI stood at 31.4 µM.
Same read-out and setting: then `Cn1c([N+](=O)[O-])cnc1CN1CCN(CCO)CC1`, with over 100 µM.
On the same count and under the same terms, as for `Cc1noc(NS(=O)(=O)c2ccc(NC(=O)c3ccc4nc5ccccc5c(Nc5ccc(S(=O)(=O)Nc6onc(C)c6C)cc5)c4c3)cc2)c1C`, the figure is over 100 µM.
Same read-out and setting: then `COC(=O)C12C3C4C1C1C2C3C41C(=O)O` (centres undefined), with over 100 µM; and `CC(C)=CCc1c(O)c(CC2=C(O)C(C)=C(O)C(CC=C(C)C)(C(=O)C(C)C)C2=O)c(O)c(C(=O)C(C)C)c1O` (centres undefined), with over 34.6 µM.
In turn, `COc1cc(Br)c(CC2NCCc3cc(OC)c(OC)cc32)cc1OC` (centres undefined) registered a TGI of over 100 µM.
Consider `CC(=O)O[C@H]1CC2C(C3CC[C@H](C(C)CCC(N)=O)[C@]31C)[C@H](OC(C)=O)C[C@@H]1CC3(CC[C@]21C)OOC1(CCC(C)CC1)OO3` (some centres undefined), for which the TGI is 22.7 µM and 16.1 µM.
The molecule `CN(N=O)C(=O)N(N)CCCCC(NC(=O)OCc1ccccc1)C(=O)OCc1ccccc1` (centres undefined) gave a TGI of over 100 µM.
On the same count and under the same terms, then `COC(=O)c1nc(-c2ccc(Cl)c(Cl)c2)nc2ccc(Cl)cc12`, with over 100 µM.
`Cc1nc2c(=O)n(C)c(=O)n(C)c2o1` registered a TGI of over 100 µM.
`O=C1c2ccc3c4c(ccc(c24)C(=O)N1CCCNCc1ccccc1F)C(=O)N(CCCNCc1ccccc1F)C3=O`: the GI50 was 0.221 µM and the TGI worked out at 0.65 µM.
The molecule `Nc1[nH]c(=O)nc2c1cnn2Cc1ccccc1` yielded a TGI of over 100 µM.
For the molecule `O=C(/C=C\c1ccc(-c2ccccc2)cc1)c1cccs1`, the TGI was over 100 µM.
`O=C(Cc1ccc(OCc2cccc(Cl)c2)cc1)NO` returned a TGI of over 100 µM.
Regarding `Nc1ccccc1C(=O)CCc1c[nH]c2ccccc12`, the TGI was over 100 µM.
`CNc1ccc(S(=O)Nc2ccc(OC)cc2)cc1` (centres undefined): the TGI is over 100 µM.
In the case of `Cc1nn(-c2ccccc2)c(-n2ccnc2)c1/C=N/Nc1nc(-c2ccc(Cl)c(Cl)c2)cs1`, the GI50 is 8.33 µM and the TGI is 60.8 µM.
For `COc1ccc(/C=C2\CS(=O)(=O)C/C(=C\c3ccc(OC)cc3)C2=O)cc1`, the GI50 was 4.59 µM and the TGI was over 77.3 µM.
`COc1ccc(NS(=O)c2ccc(Cl)cc2)cc1` (centres undefined) returned a TGI of over 100 µM.
Regarding `COc1cc(OC)c(C#N)c(OC)c1C`, the TGI is over 100 µM.
`CCC(CC)COC(=O)[C@H](C)N[P@](=O)(OC[C@H]1O[C@@](C#N)(c2ccc3c(N)ncnn23)[C@H](O)[C@@H]1O)Oc1ccccc1`: the GI50 is 9.41 µM and the TGI is over 100 µM.
Regarding `CCCCN(CCCC)CC(O)c1ccc(OCc2ccccc2)c2ccccc12` (centres undefined), the GI50 was 11 µM and the TGI was 24 µM.
As to `CC1(C)N([O-])[N+](=O)C1(C)Br` (centres undefined), the TGI is over 100 µM.
On the same count and under the same terms, then `CC1OC(=O)C2CC3CCCCC3C(/C=C/C3CCCC(C)N3C)C12` (centres undefined), with over 100 µM.
The same measure, in the same setting: as for `CO[C@]12CC(=O)C3(C(C[C@H]4CC5CCC6=CC(=O)CC[C@]6(OC(C)=O)C5C[C@@]43C)C1)C1C[C@H]3[C@@H]4CCC5=CC(=O)CC[C@]5(OC(C)=O)[C@H]4CC[C@]3(C)C12` (some centres undefined), the figure is over 100 µM; as for `COC(=O)C(C(=O)C(=O)Nc1ccc(Br)cc1)c1nc2ccc(Cl)cc2[nH]c1=O` (centres undefined), over 100 µM.
Same read-out and setting: then `C=CC(O)C#Cc1cnc(OC)nc1OC` (centres undefined), with over 100 µM.
As for `CC12OC3(O)C4C5CC(C6C5C3C61)C42` (centres undefined), the TGI was over 100 µM.
The same measure, in the same setting: as for `Cc1cc(C)nc(NS(=O)(=O)c2ccc(NC(=O)c3cccc4c(Nc5ccc(S(=O)(=O)N=C(N)N)cc5)c5ccc(Cl)cc5nc34)cc2)n1`, the figure is over 100 µM.
Regarding `COc1cccc(-n2ncc3c(N/N=C/c4ccc(F)cc4)ncnc32)c1`, the GI50 was over 21.2 µM and the TGI was over 25 µM.
Take `Nc1nc2cc(-c3ccc4ncc(C(=O)N5CCOCC5)n4c3)ccc2o1`: the GI50 is 3.84 µM and the TGI was over 100 µM.
Turning to `CC(=O)OCC1OC(OC2CCCC[Si](c3ccccc3)(c3ccccc3)O2)C(OC(C)=O)C(OC(C)=O)C1OC(C)=O` (centres undefined), the GI50 is over 100 µM and the TGI is over 100 µM.
`CC1CCC(C(C)C2C(O)CC3C4CC=C5CC(O)CCC5(C)C4CCC32C)NC1` (centres undefined) registered a TGI of 82.1 µM.
In turn, `Cc1cccc(NC(=S)Nc2ccc(Cl)cc2)n1` gave a TGI of over 100 µM.
As to `O=[N+]([O-])c1cc([N+](=O)[O-])c(N2CCCC2)cc1NN=C(c1ccc(O)cc1)c1ccc(O)cc1`, the GI50 was 13.8 µM and the TGI was 29 µM.
The corresponding values for `COc1ccc(/C=N/Nc2nc(N)nc(N3CCCC3)c2C#N)cc1` are 21.1 µM and 51.1 µM.
Take `CC(=O)/C=C/CCC(=O)/C=C/C(=O)OC(CCC(=O)/C=C/C(=O)O)CC(C)=O` (centres undefined): the TGI is over 100 µM.
With `O=C1C(c2ccccc2)=C(c2ccccc2)C(c2ccc(-c3ccc(C4=C(c5ccccc5)C(=O)C(c5ccccc5)=C4c4ccccc4)cc3)cc2)=C1c1ccccc1`, the TGI was over 100 µM.
In turn, `Cc1ccc2nc3n(c2c1)C(c1c(F)cccc1F)SC3` (centres undefined) gave a TGI of over 100 µM.
`CC(=O)OCC1OC(NC(=S)CCSc2nc3ccccc3c(=O)n2-c2ccccc2)C(OC(C)=O)C(OC(C)=O)C1OC(C)=O` (centres undefined) returned a TGI of over 100 µM.
Still for that read-out and setting: as for `CN(CC(=O)O)c1ncc2c(n1)-c1ccccc1OC2c1ccccc1` (centres undefined), the figure is over 100 µM.
In the case of `C=C1C(=O)O[C@H]2[C@H]1CC/C(COC(=O)NCc1[nH]nc3ccccc13)=C\CC[C@@]1(C)O[C@@H]21`, the GI50 is 8.61 µM and the TGI is 21 µM.
In the case of `Cc1ccc2c(NCCCN(C)C)c3c(C)nn(C)c3nc2c1`, the GI50 is 3.63 µM and the TGI was found to be 20.3 µM.
`COc1cc(-c2cncn2-c2ccc(-c3nc4ccc(F)cc4s3)cc2)ccc1F`: the GI50 is 36.3 µM and the TGI was over 100 µM.
Consider `CCOC(=O)Cn1c(=O)n(C)c(=O)c2[nH]cnc21`, for which the TGI is over 100 µM.
For `C=C(C)[C@@H]1C/C=C(\COC(=O)[C@H](OC(C)=O)C(NC(=O)c2ccccc2)c2ccccc2)CC[C@H]2O[C@]2(C)CC/C=C(\C)CC1` (some centres undefined), the GI50 is 46.2 µM and the TGI was over 50 µM.
In the case of `Oc1ccc(/C=C/c2ccc(O)cc2)cc1`, the GI50 is 11.7 µM and the TGI is over 100 µM.
`O=C(O)CCc1nc2c(n1Cc1ccccc1)C(=O)c1ccccc1C2=O` gave a TGI of over 100 µM.
On the same count and under the same terms, as for `O=C(CSCC(=O)N/N=C/c1cccc(C(F)(F)F)c1)N/N=C/c1cccc(C(F)(F)F)c1`, the figure is over 100 µM.
With `O=C(NNC(=O)C1CCN(S(=O)(=O)c2ccc(-c3ccccc3)cc2)CC1)c1ccc(C(F)(F)F)cc1`, the GI50 is over 50 µM and the TGI was over 50 µM.
For the molecule `O=C(NC1CCCCC1)NS(=O)(=O)c1ccc(-n2nc3c(c2-c2cccs2)Cc2ccccc2-3)cc1`, the GI50 was 37.9 µM and the TGI was over 100 µM.
Turning to `C[C@H](CCC(=O)O)[C@H]1CC[C@H]2[C@@H]3[C@@H](O)C[C@@H]4C[C@H](O)CC[C@]4(C)[C@H]3CC[C@]12C`, the TGI was over 100 µM.
Same read-out and setting: then `N=C1N(c2ccccc2)C(=S)C(=Nc2ccccc2)N1c1ccccc1`, with 30.9 µM; and `CCC#CCCCCCCCCC(F)C(=O)O` (centres undefined), with over 100 µM.
The same measure, in the same setting: then `CN=C(NC#N)N(Cc1ccccc1)Cc1ccccc1`, with over 100 µM; and `Cn1cnc([N+](=O)[O-])c1Sc1nc2ncccc2[nH]1`, with over 100 µM; and `C=C1[C@@H](OC(C)=O)[C@H]2[C@@H](OC(C)=O)[C@@](C)(OC(C)=O)C[C@]2(OC(C)=O)C(=O)[C@@H](C)/C=C/C(C)(C)C(=O)C[C@H]1OC(C)=O`, with over 100 µM.
